Experimental data as given in PubChem BioAssay AID624417 (National Center for Advancing Translational Sciences (NCATS), 2012).
The campaign covered roughly 410,000 compounds. About 6,400 (1.6%) were called active. Inconclusive means that the source gave no clear call. Such entries were picked first, then a sample of the others. Calls come from the whole dose curve; as a rule, active = well fitted inhibition curve with a large enough effect; inconclusive = small, poorly fitted or top-dose-only effect; inactive = no such curve, though single readings can be large or run the other way. No potency is given beside an inconclusive call; the fits are too rough.
% is set by controls: 0 for no effect and ±100 for the full control effect; potency is the fitted concentration of half-maximal effect; tags give direction and shape of the fitted curve.
Note: nearly all actives have a fitted effect of over 55% in size.

What follows are compounds tested against Glucagon-like peptide 1 receptor (Homo sapiens) (UniProt P43220) (assay: qHTS of GLP-1 Receptor Inverse Agonists (Inhibition Mode)). Settings: HEK293 GLP-1R CRE-luciferase, luminescence, 24 h, GLP-1R form is constitutively active; activity change, negative = inhibition: at 38.3 µM (top of the series) unless noted.
UniProt P43220, sequence (P43220 whole entry, looked up): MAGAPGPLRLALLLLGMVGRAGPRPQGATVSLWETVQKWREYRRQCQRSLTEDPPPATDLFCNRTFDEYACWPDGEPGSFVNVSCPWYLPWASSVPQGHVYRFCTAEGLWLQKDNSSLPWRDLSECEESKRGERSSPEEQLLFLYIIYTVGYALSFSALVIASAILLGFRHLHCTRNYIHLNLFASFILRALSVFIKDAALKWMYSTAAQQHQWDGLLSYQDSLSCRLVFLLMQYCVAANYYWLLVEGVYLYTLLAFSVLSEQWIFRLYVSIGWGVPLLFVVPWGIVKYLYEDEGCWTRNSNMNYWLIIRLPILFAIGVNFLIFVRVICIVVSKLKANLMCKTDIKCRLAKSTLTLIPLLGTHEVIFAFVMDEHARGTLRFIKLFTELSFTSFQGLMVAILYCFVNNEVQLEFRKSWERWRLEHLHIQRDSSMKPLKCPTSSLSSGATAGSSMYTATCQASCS
Procedure, shortened: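 Inverse agonists were sought by their lowering of basal cAMP reporter luciferase output in HEK293 cells stably carrying constitutively active human GLP-1R, after 24 h compound treatment.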
CCN(CC)C(=O)/C(=C\c1ccc(Br)cc1)NC(=O)c1ccccc1OC was tested, and the Potency was inconclusive [inhibitor, single point]. In the case of COc1ccc(-c2oc3ncn4nc(-c5ccccc5O)nc4c3c2-c2ccc(OC)cc2)cc1, the “activity change, negative = inhibition” value is reported as inactive: 9.49%. With COc1ccc(C(=O)Nc2ccnn2C2CCN(C(=O)CCC(F)(F)F)CC2)cc1 the Potency was inconclusive [inhibitor, partial curve, poor fit]. For CCc1noc(C)c1C(=O)OC(C)C(=O)Nc1ccc(Cl)cn1 (centres undefined), the Potency was inconclusive [inhibitor, partial curve]. With CCC1CCC2(CC1)NC(=O)N(CC(=O)Nc1ccc(OC)c(Cl)c1)C2=O (centres undefined) the Potency was inconclusive [inhibitor, single point]. In the case of Cc1cccc(S(=O)(=O)N2CN(Cc3ccco3)c3nc4ccccc4nc32)c1, the Potency is reported as inconclusive [inhibitor, single point]. In the case of Cc1ccccc1-c1nc2scc(CCNS(=O)(=O)c3ccccc3)n2n1, the “activity change, negative = inhibition” value is reported as inactive: 8.49%. In the case of CN(Cc1ccc(C#CCCO)cc1)CC1CCCN(CCc2ccc(Cl)cc2)C1 (centres undefined), the Potency is reported as inconclusive [inhibitor, single point]. For O=C(NCCC1=CCCCC1)C(=O)NCC1OCCCN1S(=O)(=O)c1cc(F)ccc1F (centres undefined), the Potency was inconclusive [inhibitor, single point]. With Cc1cc(C)nc(SC2CC(=O)N(c3ccc(C)c(C)c3)C2=O)n1 (centres undefined) the Potency was inconclusive [inhibitor, partial curve, poor fit]. For Cc1ccc(-c2noc(CN(C(=O)Cc3ccccc3)C(C)C)n2)cc1, the Potency was inconclusive [inhibitor, single point]. With O=C(Nc1ccc(Nc2ccccc2)cc1)c1ccc(Cl)cc1[N+](=O)[O-] the Potency was inconclusive [inhibitor, partial curve, poor fit]. For Cc1c(C(=O)N(C)Cc2ccc(F)cc2)sc(=O)n1Cc1ccc(Cl)c(Cl)c1, the Potency was inconclusive [inhibitor, single point]. With CN(C(=O)C1CCN(c2ncnc3c2nc2n3CCCCC2)CC1)C1CCCCC1 the Potency was inconclusive [inhibitor, single point]. In the case of Cc1cn2c(=O)cc(COC(=O)c3cccc(NC(=O)c4ccc(C(C)(C)C)cc4)c3)nc2s1, the “activity change, negative = inhibition” value is reported as inactive: -8.84%. In the case of COc1cccc(Nc2ccc3cc(S(=O)(=O)N4CCC(C)CC4)ccc3n2)c1, the Potency is reported as inconclusive [inhibitor, partial curve, poor fit]. For COc1ccc(CCC(=O)NNC(=S)NCc2ccc(F)cc2)cc1, the Potency was inconclusive [inhibitor, single point]. For COc1ccc2c(c1)CCc1c(C(=O)N3CCOCC3)noc1-2, the Potency was inconclusive [inhibitor, partial curve, poor fit]. With CCOC(=O)c1ccccc1NC(=O)COc1coc(CN2CCc3ccccc32)cc1=O the Potency was inconclusive [inhibitor, partial curve]. CN(Cc1ccc(F)cc1)C(=O)c1cc(COc2ccc(-n3cncn3)cc2)on1 was tested, and the Potency was inconclusive [inhibitor, single point]. With Cc1cc(N2CCC(C(=O)Nc3ccc(F)cc3)CC2)nc(-c2ccccc2)n1 the Potency was active: 10 µM. With CC1(C)CC(=O)C2=C(C1)N1C(=C(C#N)C2c2ccccc2Cl)N=C(N)c2ccccc21 (centres undefined) the Potency was inconclusive [inhibitor, single point]. In the case of COc1ccc(NC(=O)C2CCN(c3nc(C)cc(C)n3)CC2)cc1, the “activity change, negative = inhibition” value is reported as inactive: -1.95%. With O=C(Nc1ccccc1)Nc1cccc(Cl)c1Cl the Potency was inconclusive [inhibitor, single point]. For Cc1cccc(-c2cc3nc(-c4ccccc4)cc(=O)n3[nH]2)c1, the Potency was inconclusive [inhibitor, single point]. With COc1ccc(Cl)cc1/C=N/NC(=O)c1c(-c2ccccc2)noc1C the Potency was inconclusive [inhibitor, partial curve, poor fit]. For CC(C)(C)c1[nH]nc2c1C(C1C=CCCC1)C(C#N)=C(N)O2 (centres undefined), the Potency was inconclusive [inhibitor, single point]. CNC[C@H]1OCc2cnnn2CCCC(=O)N([C@H](C)CO)C[C@@H]1C was tested, and the “activity change, negative = inhibition” value was inactive: 26.7%. O=C(Nc1nc(-c2ccccn2)cs1)C1COc2ccccc2O1 (centres undefined) was tested, and the Potency was inconclusive [inhibitor, full curve, poor fit]. For O=C(Nc1ccc(Br)cc1)C1CC(c2c(F)cccc2Cl)=NO1 (centres undefined), the Potency was inconclusive [inhibitor, single point]. Cc1nnc(N2CCC(C(=O)N3CCCCCC3)CC2)c2nn(-c3ccc(Cl)cc3)c(C)c12 was tested, and the Potency was inconclusive [inhibitor, full curve, poor fit]. Cc1cccc(NC(=O)c2ccc(COc3ccc(Cl)cc3Cl)o2)n1 was tested, and the Potency was inconclusive [inhibitor, single point]. Cc1cccc(C(=O)NNC(=O)C23CC4CC(CC(C4)C2)C3)c1O was tested, and the Potency was inconclusive [inhibitor, single point]. With CN(C)C(=O)CCc1nc2sc3c(c2c(=O)[nH]1)CCCC3 the “activity change, negative = inhibition” value was inactive: 1.97%. In the case of CCC(=O)N1CCN(c2nc(CC)nc3sc4c(c23)CCCC4)CC1, the Potency is reported as inconclusive [inhibitor, single point]. For CCOC(=O)C1(CC2CC2)CCN(S(=O)(=O)C[C@]23CC[C@H](CC2=O)C3(C)C)CC1, the Potency was inconclusive [inhibitor, partial curve, poor fit]. With O=C1C=CC(=O)c2c(O)c(N3CCN(CCOCCO)CC3)c(Br)c(O)c21 the Potency was inconclusive [inhibitor, single point]. In the case of Cc1cc(N2CCOCC2)nc2ccc(NC(=S)NCCN(C)C)cc12, the Potency is reported as inconclusive [inhibitor, single point]. With CCOC(=O)COc1ccc(CC)cc1C(=O)c1ccn2nc(-c3ccccc3)cc2n1 the Potency was inconclusive [inhibitor, partial curve, poor fit].
